The other results are listed elsewhere or left out.
System: T1, C. trachomatis L2/434/Bu expressing GFP (CTL2-GFP)
T1 construct: L2/434/Bu GFP intracellular growth in HeLa cells
Design: species or system HeLa; C. trachomatis total inclusion area by high-content imaging, normalised to DMSO
Conditions: total inclusion area; 28.5 h, 10 µM; inhibitor
In short: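 Host cell viability was gauged from Hoechst-stained nuclei counts, while chlamydial growth was taken from total inclusion area and inclusion number per well. Cells were fixed and imaged by high-content microscopy once bulk GFP and resorufin fluorescence had been measured.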

Row | Structure (SMILES) | % of control remaining
1 | COc1cc(C)c(CN2CCN(S(=O)(=O)c3cc(C(=O)O)cs3)CC2)cc1OC [CBK297093] | 78.0094
2 | CCC(CC)C(=O)Nc1nc(OC)cnc1-c1cccc(C(=O)N(C)C)c1 [CBK145392] | 90.6859
3 | Cc1ccc(CCSCC(=O)O)cn1 [CBK261072] | 98.0004
4 | COc1ccc(N2CCN(c3cc(-c4cc(C(F)(F)F)cc(C(F)(F)F)c4)ncn3)CC2)cc1OC [CBK091020] | 76.2888
5 | N#CCCn1cc(C(=O)N2CCCCC2)c(-c2ccccc2)n1 [CBK305931] | 28.9385
6 | O=C(Oc1cccc(NC(=O)c2ccco2)c1)c1cccc(S(=O)(=O)N2CCOCC2)c1 [CBK262272] | 86.4544
7 | COc1ccc([N+](=O)[O-])c(Oc2cccc(C(F)(F)F)c2)n1 [CBK002796] | 96.5952
8 | O=C(Nc1cccc(O)c1)c1ccc2c(c1)C(=O)N(c1cccc(N3C(=O)c4ccc(C(=O)Nc5cccc(O)c5)cc4C3=O)n1)C2=O [CBK261199] | 86.2147
9 | Cc1cc(C)n(-c2ccc3nnc(CCC(=O)O)n3n2)n1 [CBK307616] | 65.2436
10 | c1ccc(-c2cccc(-c3cc(N4CCN(CCN5CCCC5)CC4)ncn3)c2)cc1 [CBK091164] | 102.774
11 | CCOC(=O)C1CCN(C(=O)CCn2ccc3ccncc32)CC1 [CBK284720] | 112.055
12 | O=C(c1ccccc1F)N1CCN(C2CCN(Cc3ccccc3)CC2)CC1 [CBK263404] | 82.4238
13 | COc1ccc(C(=O)Nc2c(OC)cc(F)cc2OC2CCNCC2)cc1 [CBK050294T] | 49.8739
14 | COc1ccccc1CN(CCCN)C(=O)NC(C)c1ccccc1 (centres unmarked) [CBK034667C] | 42.8834
15 | CCOC(=O)c1sc(C)c(C(N)=O)c1/N=C1\CCCN1 [CBK020893] | 67.6109
16 | CC(C)C(=O)Nc1ccc(-c2csc(N3CCN(C)CC3)n2)cc1 [CBK304317C] | 62.1455
17 | CCC(Sc1nnc2c(n1)[nH]c1ccccc12)C(=O)Nc1sc2c(c1C#N)CCCC2 (centres unmarked) [CBK263917] | 107.457
18 | CCN(CC)Cc1c(O)ccc2occ(C(=O)c3cc(OC)ccc3OC)c12 [CBK261949] | 92.3986
19 | CC(=O)c1ccc(NC(=O)N2Cc3nc[nH]c3C[C@H]2c2nc(-c3ccc(F)cc3)no2)cc1 [CBK288971] | 109.584
20 | COc1nccnc1OC1CCN(CC(=O)Nc2c(C)cccc2C)CC1 [CBK084249] | 90.1688
21 | O=C(CC[C@@H]1CNC(=O)[C@@H]2C[C@H](NC(=O)c3cccc(F)c3)CN12)Nc1ccccc1 [CBK289008] | 117.413
22 | Cn1ccc(C2=C(N)C(C#N)C3=C(CC(C)(C)CC3=O)O2)c1 (centres unmarked) [CBK022168] | 54.8093
23 | CCN1CCCC1CNC(=O)C1(O)c2ccccc2NC(=O)N1c1ccccc1 (centres unmarked) [CBK288554] | 82.2085
24 | c1ccc(Cn2c(-c3ccccc3)c(-c3ccccc3)c3c2ncn2nc(-c4cccnc4)nc32)cc1 [CBK265359] | 89.3374
25 | CCN(CC)CCN1C(=O)C(O)=C(C(=O)c2ccc3c(c2)OCO3)C1c1cccnc1 (centres unmarked) [CBK266465] | 113.036
26 | CCOC(=O)c1cc(CC)sc1NC(=O)c1cc2ccccc2o1 [CBK267596] | 106.133

Row | Structure (SMILES) | % of control remaining
27 | COc1ccc(C(=O)Nc2ccc3oc(-c4cccc(C)c4)nc3c2)cc1Br [CBK261944] | 98.24
28 | O=S(=O)(NCC1CCCO1)c1cccs1 (centres unmarked) [CBK044263] | 83.1359
29 | O=c1cc(CO)oc(CN2CCSCC2)c1O [CBK288404] | 100.531
30 | O=C(C1=C(O)C(=O)N(CCCN2CCOCC2)C1c1cccnc1)c1ccco1 (centres unmarked) [CBK264528] | 114.651
31 | O=C(O)CCCn1cc(NC(=O)c2cccs2)cn1 [CBK270122] | 92.4061
32 | CCCc1cc(CNC(=O)c2cnn(-c3ccc(F)cc3)c2)on1 [CBK282463] | 133.957
33 | O=C(O)c1cccc(Sc2cc(N3CCCC3)ncn2)c1 [CBK093586] | 91.1699
34 | O=C1CC(C(=O)Nc2cccc(C(=O)O)c2)C(c2ccccc2)O1 (centres unmarked) [CBK293968] | 126.13
35 | CC(C)CCOc1nccnc1-c1ccc2c(c1)OCO2 [CBK106711] | 102.598
36 | NC(=O)CN1CCC(Oc2cncc(OCC3COc4ccccc4O3)n2)C1 (centres unmarked) [CBK084372] | 90.0567
37 | CC(C)c1nccn1CCCNC(=O)N1CCCC(c2ccncn2)C1 (centres unmarked) [CBK307448] | 33.8944
38 | O=C(N[C@H]1C[C@H]2C(=O)NC[C@@H](CCC(=O)N3CCCCC3)N2C1)c1cccs1 [CBK289010] | 120.241
39 | Cn1nc(CC(=O)Nc2ccccc2C(=O)O)c2ccccc2c1=O [CBK286558] | 62.6341
40 | O=C(Cn1cnc2c(cnn2-c2cccc(Cl)c2)c1=O)N1CCCCC1 [CBK287691] | 89.4185
41 | COc1ccc([C@@]23CC[C@@H](NC(=O)Nc4ccc(Cl)c(C(F)(F)F)c4)C[C@@H]2N(C)CC3)cc1OC [CBK038224C] | 59.2579
42 | COc1ccc([C@@]23CC[C@@H](NC(=O)Nc4ccccc4C#N)C[C@@H]2N(C)CC3)cc1OC [CBK047540T] | 51.4097
43 | O=C(c1cccnc1)N1C2CCC1CC(c1ccc(F)cc1)C2 (centres unmarked) [CBK283762] | 82.9841
44 | COc1cc(NC(=O)c2nc[nH]n2)c(OC)cc1Cl [CBK288170] | 86.4576
45 | O=C(Cn1cnc2ccc(F)cc2c1=O)N1Cc2ccccc2C(c2ccccc2)C1 (centres unmarked) [CBK296767] | 85.0576
46 | CC(=O)Nc1ccc(C(=O)Nc2ccc(S(=O)(=O)N3CCOCC3)cc2)cc1 [CBK264763] | 129.082
47 | Cc1ccc(S(=O)(=O)N(CC(=O)O)c2ccc(Br)cc2)cc1 [CBK287125] | 97.9148
48 | Cc1ccc2c(N)c(C(=O)Nc3ccc(C#N)cc3)sc2n1 [CBK115348] | 89.1603
49 | O=C(c1ccc(F)cc1)N1CCC(O)(c2ccccn2)CC1 [CBK283669] | 58.9499
50 | N#Cc1ccc(C(=O)N2CCC3(CC2)NC(=O)c2cc(-c4ccoc4)ccc2O3)cc1 [CBK115852] | 102.883
51 | Cn1ccc(C(=O)NC(Cc2ccsc2)c2ccccn2)cc1=O (centres unmarked) [CBK285273] | 93.2864
52 | O=C(O)c1ccc(-c2ccc(/C=C3/NC(=O)N(c4ccc(Cl)cc4)C3=O)o2)cc1 [CBK077970] | 67.1934

Row | Structure (SMILES) | % of control remaining
53 | COc1ccc(-c2nc(NC(=O)Cc3ccccc3OC(F)(F)F)cnc2-c2cccc(C)c2)cc1 [CBK037551] | 129.669
54 | CC(C)CN(CC(N)=O)CC(=O)NC1(c2ccccc2)CCC1 [CBK066883T] | 98.5004
55 | COCc1nc(NCCn2c(C)cc(C)nc2=O)cc(C2CCOC2)n1 (centres unmarked) [CBK307495] | 70.8798
56 | O=C(O)c1cc(-c2ccccc2)oc1CSCCO [CBK286559] | 87.9206
57 | CCCNC(=O)C[C@@H]1CCN(C(=O)c2ccnc(Cl)c2)C[C@@H]1CC [CBK289138] | 74.1237
58 | COc1ccc(-c2cnc(N)c(N3CCC[C@@H]3CO)n2)c(OC)c1OC [CBK063505] | 96.155
59 | NC(=O)CN1CCCN(c2ccnc(OCCN3CCOCC3)n2)CC1 [CBK083804] | 75.0723
60 | Cc1cccc(-c2nnn(CC(=O)O)n2)c1 [CBK068105] | 72.2993
61 | CCCc1cc(C(=O)N2CCN(C)C3(CCNC(=O)CC3)C2)ccn1 (centres unmarked) [CBK306815] | 102.531
62 | Cc1cc(C)n(C2CCN(Cc3nc4ccccc4[nH]3)CC2)n1 [CBK281620] | 105.043
63 | O=C(NC(c1ccccc1)c1ccsc1)C1CCN(C2Cc3ccccc3C2)CC1 (centres unmarked) [CBK148541] | 82.7616
64 | COc1ccc(NC(=O)N[C@@H]2C=C[C@@H](c3c(C)nn(CCC#N)c3C)C2)cc1 [CBK288804] | 99.8187
65 | COc1ccc(CC2CCCN2C(=O)Cn2cncn2)cc1 (centres unmarked) [CBK306351] | 49.5945
66 | O=C(OCCN1CCOCC1)c1ccccc1I [CBK033860] | 90.4092
67 | c1c(C2CC2)[nH]c2nc(N3CCCC3)nc(N3CCCC3)c12 [CBK016707G] | 0
68 | O=C(O)CNC(=O)CCn1c(-c2ccccc2)cc2ccccc21 [CBK286780] | 83.6074
69 | CCc1nn(CC(=O)NCC2CC2)c(=O)c2cc3sccc3n12 [CBK284055] | 75.9615
70 | CCOC(=O)N1CCC(NCC(C)(C)CN(C)C)CC1 [CBK028516] | 74.0394
71 | c1nncn1/N=C1/CCCc2nonc21 [CBK261065] | 98.9401
72 | O=C(Nc1ccc(Cc2ccc(NC(=O)c3ccccc3F)c(O)c2)cc1O)c1ccccc1F [CBK268366] | 96.0722
73 | COc1ccc(Br)c(C(=O)Nc2cc(N3CCNCC3)c3occc3c2)c1 [CBK061757C] | 80.3763
74 | CC(=O)NC(NC(=S)Nc1sc2c(c1C#N)CCCC2)C(Cl)(Cl)Cl (centres unmarked) [CBK261053] | 98.4714
75 | O=C(Oc1ccc(-n2ccnc2)cc1)c1ccc(-c2ccccc2)cc1 [CBK095145] | 102.498
76 | COc1ccc(CC(=O)Nc2ccc3n(c2=O)C[C@H]2C[C@@H]3CN(C(C)=O)C2)cc1 [CBK289203] | 91.438
77 | O=C(CO)N1CC2(CCN(CCCn3c(=O)[nH]c4ccccc43)CC2)c2ccccc21 [CBK131506] | 83.5455

Reference: paper PMC12040169 (PLOS Biology, 2025)
